Test results taken from the supplement of paper PMC12217912.
The other results are listed elsewhere or left out. The full chains were built here from the parent and the listed change. Inactive controls read about 0.05.

B1: TEV protease; numbered along this chain (parent)
chain: MGESLFKGPRDYNPISSSICHLTNESDGHTTSLYGIGFGPFIITNKHLFRRNNGTLVVQSLHGVFKVKDTTTLQQHLVDGRDMIIIRMPKDFPPFPQKLKFREPQREERICLVTTNFQTKSMSSMVSDTSCTFPSGDGIFWKHWIQTKDGQCGSPLVSTRDGFIVGIHSASNFTNTNNYFTSVPKNFMELLTNQEAQQWVSGWRLNADSVLWGGHKVFMVKPEEPFQPVKEATQL

Variants of: B1
Assay: raw area under fraction-flipped curve 0-4 h after induction (AUC4h, not background-subtracted), DNA-recorder readout of cleavage of the substrate (dimensionless); higher = more cleavage of the substrate by the protease variant
Conditions: temperature: 34 °C; time window: 0-4 h after rhamnose induction
Protocol: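 In vivo DNA recorder in E. coli TOP10(DE3) ΔrhaA at 34 °C. Each TEVp single-site mutant (parent TEVp 0) is paired with a single-site variant of the 7-mer TEVs (canonical ENLYFQ|S). The substrate sits between flexible linkers in a Bxb1-sfGFP-TEVs-SsrA fusion, so cleavage stabilises Bxb1 and speeds flipping of a recombination array, read by NGS. The value is the raw area under the fraction-flipped curve over 0-4 h after rhamnose induction (AUC4h), with ≥20 reads per time point. It is not background-subtracted; inactive controls average about 0.047.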
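Also: Bxb1 expression induced with 0.2% (w/v) L-rhamnose at OD600 near 0.5, cultures sampled hourly, flipped fraction per protease–substrate barcode pair counted by paired-end Illumina sequencing.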

| Variant | area with substrate ENLYFCS | area with substrate ENLYFDS | area with substrate ENLYFES | area with substrate ENLYFFS | area with substrate ENLYFGS | area with substrate ENLYFHS | area with substrate ENLYFIS | area with substrate ENLYFKS | area with substrate ENLYFLS | area with substrate ENLYFNS | area with substrate ENLYFRS | area with substrate ENLYFTS | area with substrate ENLYFWS | area with substrate ENLYFYS | area with substrate ENLYFMS | area with substrate ENLYFPS | area with substrate ENLYFSS | area with substrate ENLYFVS |
| --- | --- | --- | --- | --- | --- | --- | --- | --- | --- | --- | --- | --- | --- | --- | --- | --- | --- | --- |
| MGESLFKGPRDYNPISSSICHLTNESDGHTTSLYGIGFGPFIITNKHLFRRNNGTLVVQSLHGVFKVKCTTTLQQHLVDGRDMIIIRMPKDFPPFPQKLKFREPQREERICLVTTNFQTKSMSSMVSDTSCTFPSGDGIFWKHWIQTKDGQCGSPLVSTRDGFIVGIHSASNFTNTNNYFTSVPKNFMELLTNQEAQQWVSGWRLNADSVLWGGHKVFMVKPEEPFQPVKEATQL [D69C] | 0.0583 | 0.0511 | 0.0548 | 0.0369 | 0.0603 | 0.07 | 0.0487 | 0.0643 | 0.0539 | 0.0439 | 0.0655 | 0.0499 | 0.0623 | 0.0605 | – | – | – | – |
| MGESLFKGPRDYNPISSSICHLTNESDGHTTSLYGIGFGPFIITNKHLFRRNNGTLVVQSLHGVFKVKDTTTLQQSLVDGRDMIIIRMPKDFPPFPQKLKFREPQREERICLVTTNFQTKSMSSMVSDTSCTFPSGDGIFWKHWIQTKDGQCGSPLVSTRDGFIVGIHSASNFTNTNNYFTSVPKNFMELLTNQEAQQWVSGWRLNADSVLWGGHKVFMVKPEEPFQPVKEATQL [H76S] | 0.055 | – | 0.0625 | 0.042 | 0.0613 | – | 0.0615 | 0.0838 | 0.0563 | 0.0534 | 0.0493 | 0.0609 | 0.0523 | 0.0451 | 0.0589 | 0.06 | 0.0532 | – |
| MGESLFKGPRDYNPISSSICHLTNESDGHTTSLYGIGFGPFIITNKHLFRRNNGTLVVQSLHGVFKVKDTTTLQQHLVDGLDMIIIRMPKDFPPFPQKLKFREPQREERICLVTTNFQTKSMSSMVSDTSCTFPSGDGIFWKHWIQTKDGQCGSPLVSTRDGFIVGIHSASNFTNTNNYFTSVPKNFMELLTNQEAQQWVSGWRLNADSVLWGGHKVFMVKPEEPFQPVKEATQL [R81L] | 0.053 | – | 0.0677 | 0.0798 | – | – | 0.0659 | – | 0.0257 | 0.0414 | 0.0663 | 0.0486 | 0.0419 | 0.0536 | 0.0695 | 0.0679 | – | 0.0517 |
| MGESLFKGPRDYNPISSSICHLTNESDGHTTSLYGIGFGPFIITNKHLFRRNNGTLVVQSLHGVFKVKDTTTLQQHLVDGRQMIIIRMPKDFPPFPQKLKFREPQREERICLVTTNFQTKSMSSMVSDTSCTFPSGDGIFWKHWIQTKDGQCGSPLVSTRDGFIVGIHSASNFTNTNNYFTSVPKNFMELLTNQEAQQWVSGWRLNADSVLWGGHKVFMVKPEEPFQPVKEATQL [D82Q] | 0.0661 | – | 0.0542 | – | – | 0.0731 | 0.059 | – | 0.0599 | 0.0784 | – | 0.0453 | – | – | 0.047 | 0.0641 | – | 0.0655 |
| MGESLFKGPRDYNPISSSICHLTNESDGHTTSLYGIGFGPFIITNKHLFRRNNGTLVVQSLHGVFKVKDTTTLQQHLVDGRDIIIIRMPKDFPPFPQKLKFREPQREERICLVTTNFQTKSMSSMVSDTSCTFPSGDGIFWKHWIQTKDGQCGSPLVSTRDGFIVGIHSASNFTNTNNYFTSVPKNFMELLTNQEAQQWVSGWRLNADSVLWGGHKVFMVKPEEPFQPVKEATQL [M83I] | 0.0516 | – | – | 0.0586 | – | 0.0645 | 0.0522 | 0.0407 | – | – | 0.0603 | – | 0.0609 | – | 0.0648 | – | – | 0.0591 |
| MGESLFKGPRDYNPISSSICHLTNESDGHTTSLYGIGFGPFIITNKHLFRRNNGTLVVQSLHGVFKVKDTTTLQQHLVDGRDMIDIRMPKDFPPFPQKLKFREPQREERICLVTTNFQTKSMSSMVSDTSCTFPSGDGIFWKHWIQTKDGQCGSPLVSTRDGFIVGIHSASNFTNTNNYFTSVPKNFMELLTNQEAQQWVSGWRLNADSVLWGGHKVFMVKPEEPFQPVKEATQL [I85D] | 0.0462 | – | 0.0604 | 0.0418 | – | 0.0621 | 0.0409 | 0.0523 | – | – | 0.0593 | 0.0402 | 0.034 | – | 0.057 | 0.0206 | – | – |
| MGESLFKGPRDYNPISSSICHLTNESDGHTTSLYGIGFGPFIITNKHLFRRNNGTLVVQSLHGVFKVKDTTTLQQHLVDGRDMIIIRIPKDFPPFPQKLKFREPQREERICLVTTNFQTKSMSSMVSDTSCTFPSGDGIFWKHWIQTKDGQCGSPLVSTRDGFIVGIHSASNFTNTNNYFTSVPKNFMELLTNQEAQQWVSGWRLNADSVLWGGHKVFMVKPEEPFQPVKEATQL [M88I] | 0.0579 | – | 0.0652 | 0.0563 | 0.0523 | 0.0571 | – | 0.0563 | 0.0764 | 0.0328 | – | 0.0638 | – | 0.0711 | 0.0699 | 0.068 | – | – |
| MGESLFKGPRDYNPISSSICHLTNESDGHTTSLYGIGFGPFIITNKHLFRRNNGTLVVQSLHGVFKVKDTTTLQQHLVDGRDMIIIRMPKDAPPFPQKLKFREPQREERICLVTTNFQTKSMSSMVSDTSCTFPSGDGIFWKHWIQTKDGQCGSPLVSTRDGFIVGIHSASNFTNTNNYFTSVPKNFMELLTNQEAQQWVSGWRLNADSVLWGGHKVFMVKPEEPFQPVKEATQL [F92A] | 0.0592 | – | 0.0675 | 0.0622 | 0.0468 | – | 0.0664 | – | – | – | 0.0612 | 0.0627 | – | 0.0339 | 0.0695 | 0.0494 | 0.0561 | – |
| MGESLFKGPRDYNPISSSICHLTNESDGHTTSLYGIGFGPFIITNKHLFRRNNGTLVVQSLHGVFKVKDTTTLQQHLVDGRDMIIIRMPKDFPPFPQELKFREPQREERICLVTTNFQTKSMSSMVSDTSCTFPSGDGIFWKHWIQTKDGQCGSPLVSTRDGFIVGIHSASNFTNTNNYFTSVPKNFMELLTNQEAQQWVSGWRLNADSVLWGGHKVFMVKPEEPFQPVKEATQL [K98E] | 0.0746 | 0.0594 | – | 0.0682 | – | – | 0.0464 | – | – | 0.0674 | – | 0.0595 | 0.0644 | 0.0533 | – | 0.0739 | – | – |
| MGESLFKGPRDYNPISSSICHLTNESDGHTTSLYGIGFGPFIITNKHLFRRNNGTLVVQSLHGVFKVKDTTTLQQHLVDGRDMIIIRMPKDFPPFPQKLKFDEPQREERICLVTTNFQTKSMSSMVSDTSCTFPSGDGIFWKHWIQTKDGQCGSPLVSTRDGFIVGIHSASNFTNTNNYFTSVPKNFMELLTNQEAQQWVSGWRLNADSVLWGGHKVFMVKPEEPFQPVKEATQL [R102D] | 0.0534 | 0.0317 | 0.04 | 0.0489 | – | 0.0286 | – | – | 0.0378 | 0.0485 | 0.0813 | 0.0552 | – | – | 0.0429 | 0.0554 | 0.0545 | – |
